Data reported in PubChem BioAssay AID1508642 (National Center for Advancing Translational Sciences (NCATS), 2021).
The campaign covered roughly 43,000 compounds. About 200 (0.47%) were called active. Not shown: some 12% with an inconclusive outcome. Calls follow the shape of the dose curve; as a rule, active = well fitted cell-killing curve with a large enough effect; inconclusive = small, poorly fitted or top-dose-only effect, or effect the other way; inactive = flat fitted curve, though single readings scatter. The list shows a part of the results.

assay: Cell viability qHTS assay in S16 Pmp22-F2sN cells; settings: S16 Pmp22-F2sN Schwann cells viability, CellTiter-Glo, 24 h; series mostly up to 57.5 µM; activity change, negative = cytotoxicity: at the top concentration; also: nearly all actives have a fitted effect of over 65% in size
Summary of the method: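 Viability was measured by CellTiter-Glo luminescence (15 min, room temperature). This followed 24 h at 37 °C of compound exposure (23 nL pin transfer) in S16 Pmp22-F2sN Schwann cells, 500-1,000 per well.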
% is scaled to controls: 0 for no effect and ±100 for the full control effect.

| SMILES | activity change, negative = cytotoxicity |
| --- | --- |
| COc1ccccc1-c1nnc(C2CCN(C(=O)c3cccc(Cl)c3)CC2)o1 | inactive: 6.14% |
| COc1cc(NC(=O)c2cc(Cl)ccc2Cl)ccc1NC(=O)c1cc2ccccc2o1 | inactive: 25.5% |
| Cc1ccc(NC(=O)/C=C/c2ccc(Cl)cc2)c(Br)c1 | inactive: 12.4% |
| CCS(=O)(=O)N1CCc2cc(C(=O)NCc3ccc(Cl)cc3)ccc21 | inactive: 16.4% |
| CN(C)c1ccc(CNC(=O)c2cnc3sc(N4CCCC4)nn3c2=O)cc1 | inactive: 1.73% |
| COCCCNC(=O)c1[nH]c2ccccc2c1Sc1ccc(C)cc1 | inactive: 7.43% |
| Cc1ccccc1NC(=O)Cn1c(=O)n(CCCCCC(=O)NCc2ccccc2Cl)c(=O)c2sccc21 | inactive: 7.72% |
| CCNc1nc(N)nc(Oc2ccc(OCC(=O)OC)nn2)n1 | inactive: 0.777% |
| CCN(CC)CCNc1ncnc2c1cnn2-c1cc(Cl)ccc1C | inactive: -3.7% |
| CCOc1ccc(-c2nc(CNC(=O)NC3CCCCC3)c(C)o2)cc1 | inactive: 6.73% |
| Cc1ccc(C(=O)Nc2nc3nc(C)cc(=O)n3[nH]2)cc1 | inactive: 12.9% |
| CC(C)c1ccc(-c2noc(SCC(=O)N3CCN(c4ccc(F)cc4)CC3)n2)cc1 | inactive: 1.49% |
| CCOc1ccc(OCc2ccc(C(=O)Nc3cc(OC)c(OC)c(OC)c3)o2)cc1 | inactive: -0.25% |
| O=C(CCc1ccccc1)N(Cc1cccnc1)c1nc2c(F)cc(F)cc2s1 | inactive: -6.33% |
| Cc1ccc(C)c(NC(=O)N(C)CCc2c(C)nn(C)c2C)c1 | inactive: 2.29% |
| COc1ccc(CCNS(=O)(=O)c2cc(-c3cc(C)no3)ccc2OC)cc1OC | inactive: -1.12% |
| Cc1ccc(N2CC(C(=O)NCCS(=O)(=O)N3CCN(c4ccccc4)CC3)CC2=O)cc1C (configuration not stated) | inactive: 22.9% |
| COc1ccc(CCNc2nc3ccc(Cl)cc3n3cnnc23)cc1OC | inactive: 15.8% |
| Cc1cccc2nc(-c3ccc(N(C)C)cc3)c(Nc3ccc4c(c3)OCO4)n12 | inactive: -1.5% |
| O=C(NCCc1csc(-c2ccc(Cl)cc2)n1)c1ccco1 | inactive: 4.43% |
| COc1cccc(CNC(=O)CSc2nc(=O)[nH]c3c2CCC3)c1 | inactive: 5.89% |
| CCCN(C(=O)C(=O)Nc1ccc2nc3n(c(=O)c2c1)CCCCC3)c1ccc(OCC)cc1 | inactive: 6.97% |
| CCOc1ccccc1C(=O)Nc1cccc2ccc(C)nc12 | inactive: -4.36% |
| COc1cccc(CCNC(=O)c2ccc(Cn3c(SCc4ccccc4)nc4cccnc43)cc2)c1 | inactive: -25.7% |
| CCOc1ccc(NC(=O)NC(C)c2c(-n3cccc3)sc3c2CCN(CC)C3)cc1 (configuration not stated) | inactive: -19.5% |

| SMILES | activity change, negative = cytotoxicity |
| --- | --- |
| O=C(Nc1ccc2nc(SCCOc3ccccc3)sc2c1)c1ccco1 | inactive: 6.33% |
| Cc1cccn2c(=O)c3cc(C(=O)NC(C)C)n(C)c3nc12 | inactive: 20.5% |
| Cc1cccc(-c2nc3cc(NC(=O)c4ccc(OCC(C)C)cc4)ccc3o2)c1 | inactive: 12.3% |
| Cc1ccn2c(c1)nc(=O)c1cc(S(=O)(=O)N3CCCCC3)ccc12 | inactive: 1.31% |
| COc1ccc(NC(=O)c2cnc(N3CCOCC3)c3ccccc23)cc1OC | inactive: 17.8% |
| Cc1ccccc1NC(=O)C1CCN(C(=O)c2ccc(F)cc2)CC1 | inactive: 3.62% |
| CCOc1ccc(NC(=O)Cn2cc(C(=O)c3ccc(F)cc3)c(=O)c3cc4c(cc32)OCO4)cc1 | inactive: -4.13% |
| COc1ccc(CCNC(=O)C(=O)NCC(c2ccco2)S(=O)(=O)c2cccs2)cc1 (configuration not stated) | inactive: -3.55% |
| CCC(Sc1nc2cc3c(cc2c(=O)n1CCCCCC(=O)NCc1ccc2c(c1)OCO2)OCO3)C(=O)NCCCOC (configuration not stated) | inactive: 9.85% |
| Cc1nn2c(=O)cc(COC(=O)c3ccc(NC(=O)CCc4ccccc4)cc3)nc2s1 | inactive: 0.684% |
| Cc1cccc(OCCn2c(SCC(N)=O)nc3ccccc32)c1 | inactive: -14.1% |
| CCc1noc(-c2ccc(N3CCC(C)CC3)c([N+](=O)[O-])c2)n1 | inactive: -19.8% |
| O=C(CN1C(=O)c2cccnc2Oc2ccc(Cl)cc21)NCCCN1CCCCC1 | inactive: 10.1% |
| CC(C)C(=O)Nc1ccccc1C(=O)OCc1cc(=O)n2nc(C3CC3)sc2n1 | inactive: 20.1% |
| COc1ccc(Cn2c(CCC(=O)Nc3ccc(Br)c(C)c3)nc3cccnc32)cc1 | inactive: -1.88% |
| CCCCCn1c(=O)[nH]c2cc(C(=O)N3CCN(c4ccc(OC)cc4)CC3)ccc2c1=O | inactive: -21.6% |
| CN(C)c1ccc(C(=O)Nc2sc(Nc3ccccc3)nc2C(N)=O)cc1 | inactive: -1.11% |
| Cc1ccc(NC(=O)CN(C)S(=O)(=O)c2cccc3cccnc23)c(C)c1 | inactive: 14.5% |
| O=C(Cn1nnc(-c2ccc(C(F)(F)F)cc2)n1)NCCc1ccccc1 | inactive: 3.95% |
| Cc1cc(C)cc(NS(=O)(=O)c2cc3[nH]c(=O)c(=O)[nH]c3cc2C)c1 | inactive: 10% |
| CCOC(=O)C1CCC(CN(Cc2ccc(OC)cc2)S(=O)(=O)c2ccc(C)cc2)CC1 (configuration not stated) | inactive: 2.84% |
| CCCC(=O)Oc1c(Sc2ccc(C)cc2)c(C)nn1-c1ccccc1 | inactive: 1.52% |
| COc1cc(OC)c(C(=O)NCc2nc(-c3ccccc3)no2)cc1OC | inactive: -8.29% |
| CCc1ccc(CN(Cc2ccco2)c2cnc(S(C)(=O)=O)nc2C(=O)Nc2ccc(C)c(Cl)c2)cc1 | inactive: -2.28% |
| COc1ccc(NC(=O)c2sc3nc(C)c(C(=O)Nc4ccc(C)cc4C)c(-c4sccc4C)c3c2N)cc1 | inactive: 12.5% |

| SMILES | activity change, negative = cytotoxicity |
| --- | --- |
| CCc1c(CN2CCN(c3ccc(F)cc3)CC2)csc1C | inactive: 25.6% |
| CC(=O)Nc1ccc2nc(SCCOc3ccc(C)cc3)sc2c1 | inactive: 12% |
| COc1ccc(C)cc1Nc1nc2c(S(=O)(=O)c3cc(C)ccc3C)nnn2c2ccsc12 | inactive: 27.2% |
| Cc1ccc(CN2CCC(CNC(=O)Nc3ccccc3F)CC2)cc1 | inactive: -20.2% |
| O=C(COc1ccc(Cl)cc1)NCCc1csc(-c2ccc(C(F)(F)F)cc2)n1 | inactive: 15.8% |
| COCCNc1nc2c(S(=O)(=O)c3ccccc3)nnn2c2ccc(Cl)cc12 | inactive: -21.6% |
| COc1cc2c(cc1NC(=O)COc1cc(C)cc(C)c1)oc1ccccc12 | inactive: 9.55% |
| CN(Cc1ccccc1)C(=O)C(=O)Nc1ccc2nc3n(c(=O)c2c1)CCCCC3 | inactive: 16.4% |
| COc1ccc(-n2c(=O)c3ccc(C(=O)NCc4ccc(C)cc4)cc3n(CC(=O)Nc3cccc(F)c3)c2=O)cc1 | inactive: 8.56% |
| Cc1ccc(CNC(=O)c2cc3cc(C)ccc3n2C)cc1 | inactive: 3.95% |
| CNc1ccc(-c2nc(-c3ccccn3)no2)cc1[N+](=O)[O-] | inactive: -4.93% |
| COc1ccc(CN2C(=O)N(c3cccc(C)c3)C(=O)C2CC(=O)Nc2ccc(F)cc2)cc1OC (configuration not stated) | inactive: -1.93% |
| Cc1ccc(NC(=O)CN2C(=O)COc3ccc(S(=O)(=O)N4CCCCC4)cc32)cc1Cl | inactive: -3.82% |
| CCOC(=O)c1cc(NC(=O)c2ccc(C)cc2)c(=O)n2c1oc1ccccc12 | inactive: 16% |
| COCCCNC(=O)Cn1c(=O)n(-c2ccccc2)c(=O)c2c1c1cc(OC)ccc1n2C | inactive: 6.8% |
| CCOc1ccc(C2c3[nH]c4ccccc4c3CCN2C(=O)CSc2ccccc2)cc1 (configuration not stated) | inactive: -14% |
| Cc1ccc(-n2nc(C(=O)N3CCCCC3)c(=O)n(C)c2=O)cc1 | inactive: 4.11% |
| CCCNC(=O)C1CCC(Cn2c(=O)c3sccc3n(CC(=O)N(CC)CC)c2=O)CC1 (configuration not stated) | inactive: 14.3% |
| COc1ccc(NC(=O)Cn2nnnc2-c2ccccc2F)c(C)c1 | inactive: 1.05% |
| COC(=O)c1ccc(NC(=O)CC2C(=O)N(c3cccc(F)c3)C(=O)N2CC(C)C)cc1 (configuration not stated) | inactive: 0.0408% |
| COc1cccc(C(=O)N(Cc2ccc(N(C)C)cc2)Cc2ccco2)c1 | inactive: 15.7% |
| CCc1ccc(CNC(=O)CN2C(=O)CSc3ccc(S(=O)(=O)N4CCOCC4)cc32)cc1 | inactive: 0.389% |
| O=C(CSc1nc2c([nH]c3ccccc32)c(=O)n1-c1ccc(Cl)cc1)NCc1ccccc1 | inactive: 6.62% |
| COc1cc(C(=O)Nc2sc3c(c2C(N)=O)CCC(C)C3)cc(OC)c1OC (configuration not stated) | inactive: 17.3% |
| CCn1c(=O)c(=O)n(CC)c2cc(N3CCCCC3)c(NC(=O)c3ccc(OC)c(OC)c3)cc21 | inactive: -18.5% |

| SMILES | activity change, negative = cytotoxicity |
| --- | --- |
| COc1ccc(CCNC(=O)CSc2cc(=O)n(C)c3ccccc23)cc1OC | inactive: 3% |
| CCc1ccc(S(=O)(=O)NCc2cccn2Cc2cccc(C)c2)cc1 | inactive: -22.1% |
| CN1CCN(C(CNC(=O)C(=O)Nc2ccccc2C#N)c2ccc3c(c2)OCO3)CC1 (configuration not stated) | inactive: 3.37% |
| CC1=C(C(=O)Nc2cc(Cl)ccc2C)C(c2ccccc2F)n2ncnc2N1 (configuration not stated) | inactive: 1.95% |
| Cc1cccc(N2CCN(c3ncnc4onc(C)c34)CC2)c1C | inactive: 8.34% |
| COC(=O)c1cccc(Nc2c(-c3ccc(SC)cc3)nc3nc[nH]n23)c1 | inactive: -10.1% |
| CCc1ccc(C2N=C(N)Nc3nc4ccccc4n32)cc1 (configuration not stated) | inactive: -15.5% |
| COc1ccc(CCNC(=O)Cn2c(=O)c3sccc3n(CC(=O)Nc3cccc(C(F)(F)F)c3)c2=O)cc1OC | inactive: -3.7% |
| O=C(NCc1cccc(Cl)c1)c1cnc(N2CCCCC2)c2ccccc12 | inactive: -2.11% |
| Cc1cccc(S(=O)(=O)c2cn(Cc3ccc(F)cc3)c3cc(N4CCCCC4)c(F)cc3c2=O)c1 | inactive: 1.46% |
| O=C(CCCCCn1c(=O)[nH]c2ccccc2c1=O)NCCc1ccccc1 | inactive: 1.82% |
| COc1ccc(Cl)cc1NC(=O)CN(c1cccc(C)c1C)S(C)(=O)=O | inactive: 9.76% |
| CCCN1CCN(c2ncc3c(n2)CCN(Cc2ccc(OC)c(OC)c2OC)C3)CC1 | inactive: 12.3% |
| Cc1ccc(NC(=O)Cn2nc(-c3ccc(F)cc3)c3cnc4ccc(C)cc4c32)cc1 | inactive: 14.6% |
| COc1ccccc1-c1noc(-c2ccc(N(C)Cc3ccccc3)c([N+](=O)[O-])c2)n1 | inactive: 9.65% |
| CCCCN(CC)C(=O)CCn1c(=O)c2cccn2c2cccnc21 | inactive: 21.8% |
| Cc1ccc(NC(=O)CN(C)S(=O)(=O)c2ccc3c(c2)CCC(=O)N3)c(C)c1 | inactive: -3.8% |
| CCCCNC(=O)CN1C(=O)CSc2ccc(S(=O)(=O)N3CCC(C)CC3)cc21 | inactive: 11.4% |
| CC(=O)c1cccc(N(C(=O)Cn2nnc3ccccc32)C(C(=O)NCc2ccccc2)c2ccc(F)cc2)c1 (configuration not stated) | inactive: 1.51% |
| COc1cccc(NC(=O)CN(Cc2ccccc2)S(=O)(=O)c2ccc3nc(C)sc3c2)c1 | inactive: -27.6% |
| CCOC(=O)c1c(S(=O)(=O)NCC(=O)Nc2ccc(Cl)c(C(F)(F)F)c2)c(C)n(C)c1C | inactive: -22.3% |
| CCCCc1nn2c(=O)cc(COC(=O)c3cccc(NC(=O)c4cccc(C)c4)c3)nc2s1 | inactive: 3.06% |
